The values below come from US20220193134A1, “CO-USE OF LENALIDOMIDE WITH CAR-T CELLS” (CRISPR THERAPEUTICS AG, priority 2020, published 2022).

Test [1] relates to anti-CD70 CAR-T cells. The test can be described thus: Editing efficiency of anti-CD70 CAR-T cells (Process 1 and Process 2). In kind it is cell-based, human. On the procedure: TRAC-% was above 90% on Lenalidomide treatment or non-treated cells on both day 6/7 and day 13/15.
FIGS. 5H-5K show the CAR+%, TRAC-%, B2M-% and CD70-%. CD70 electroporation was performed on the day 0 (T cell thawing day) for anti-CD70 CAR-T cell Process 1, but on day 1 (24 hr post activation) for anti-CD70 CAR-T cell Process 2. […] Lenalidomide decreased CD70-% on anti-CD70 CAR-T electroporated cells (Process 1) by about 7% but not on anti-CD70 CAR-T electroporated cells (process 2). CAR+% from anti-CD70 CAR-T cells (Process 2) was 88% on day 7 and 80% on day 14 (FIG. 5H). CAR+% from anti-CD70 CAR-T cells (Process 1) was 94% on day 7 and 82.5% on day 14. (FIG. 5H). TRAC-% of anti-CD70 CAR-T cells (from both processes) were around 97-98% on day 7 and 93%-98% on day 14 (FIG. 5I). B2M-% of the anti-CD70 CAR-T cells from Process 1 and Process 2 were around 80-83% on day 7 and 70%-85% on day 14 (FIG. 5J).

The test system of test [2] is anti-CD19 CAR-T cells. Description: CD4 and CD8 ratio of anti-CD19 CAR-T cells. The settings on record: day 6/7 and day 13, study #1.

For `Nc1cccc2c1CN(C1CCC(=O)NC1=O)C2=O` (stereo not shown) [Lenalidomide], the “changes of TRAC-% and B2M-%” value in test [1] (Lenalidomide's treatment) is reported as “No significant changes”. Besides, the “decrease of CD70-%” value in test [1] (anti-CD70 CAR-T electroporated cells (Process 1)) is recorded as “about 7%”; in test [1] (anti-CD70 CAR-T electroporated cells (process 2)), “not”. The “skewing of CD8+ cells” value in test [2] is reported as “not significantly impacted”.
